According to ChEMBL document CHEMBL5606460, “ASAP - DENV-2 NS2B-NS3 protease fluorescence single point” (2024):
Screen size: about 2,000 compounds; about 110 (5.5%) showed an effect of 50% or more. The list shows a part of the results. Residues, ends and D or L forms follow the SMILES beside them. *: point of attachment. Boc = CC(C)(C)OC(=O)*

Target: Genome polyprotein (dengue virus type 2) (UniProt P29990)
[1] = Thailand/16681/1984, Concentration 25.0 uM, Number of replicates 1.0

Structure (SMILES): O=C(NCCc1c[nH]cn1)[C@@]1(c2ccc(F)cc2)CCCNC1
- inhibition (Thailand/16681/1984, Concentration 50.0 uM, Number of replicates 2.0, Standard deviation 0.3370852681809151 %): 1.11%
- inhibition (Thailand/16681/1984, Concentration 100.0 uM, Number of replicates 2.0, Standard deviation 0.3435886111998431 %): 2%
- inhibition (Thailand/16681/1984, Concentration 200.0 uM, Number of replicates 2.0, Standard deviation 1.0551527587912057 %): 1.4%

Structure (SMILES): O=Cc1ccc(N2CCC(C(=O)Nc3ccc([N+](=O)[O-])c4ccccc34)CC2)cc1
- inhibition [1]: 13.5%

Structure (SMILES): c1ccc2c([C@H]3CCN(Cc4cnns4)C3)c[nH]c2c1
- inhibition (Thailand/16681/1984, Concentration 49.5 uM, Number of replicates 2.0, Standard deviation 3.0780463869115993 %): -4.38%
- inhibition (Thailand/16681/1984, Concentration 99.01 uM, Number of replicates 2.0, Standard deviation 2.5330949692173803 %): -3.43%
- inhibition (Thailand/16681/1984, Concentration 198.0 uM, Number of replicates 2.0, Standard deviation 2.7142685080443707 %): 0.233%

Structure (SMILES): CCC1CCN(Cc2c[nH]c3ccccc23)CC1
- inhibition (Thailand/16681/1984, Concentration 49.5 uM, Number of replicates 2.0, Standard deviation 2.7396823833468638 %): -3.92%
- inhibition (Thailand/16681/1984, Concentration 99.01 uM, Number of replicates 2.0, Standard deviation 2.111384308316896 %): -4.24%
- inhibition (Thailand/16681/1984, Concentration 198.0 uM, Number of replicates 2.0, Standard deviation 2.001031509888762 %): -1.98%

Structure (SMILES): O=Cc1ccc(N2CCC(C(=O)N3CCC(CCN4CCCC4)CC3)CC2)cc1
- inhibition [1]: 8.07%

Structure (SMILES): CN(C)Cc1cn(C2CN(C(=O)c3ccc4[nH]ncc4c3)C2)nn1
- inhibition (Thailand/16681/1984, Concentration 49.5 uM, Number of replicates 2.0, Standard deviation 0.3597803345796673 %): -5.6%
- inhibition (Thailand/16681/1984, Concentration 99.01 uM, Number of replicates 2.0, Standard deviation 1.1960695666756216 %): -5.01%
- inhibition (Thailand/16681/1984, Concentration 198.0 uM, Number of replicates 2.0, Standard deviation 1.2525682600414454 %): -4.95%

Structure (SMILES): O=C(NCCc1ccn[nH]1)c1cccc2c1NC(=O)[C@]1(CCCN1)C2
- inhibition (Thailand/16681/1984, Concentration 49.5 uM, Number of replicates 2.0, Standard deviation 2.5151229629564558 %): -3.1%
- inhibition (Thailand/16681/1984, Concentration 99.01 uM, Number of replicates 2.0, Standard deviation 3.956768618278056 %): -2.79%
- inhibition (Thailand/16681/1984, Concentration 198.0 uM, Number of replicates 2.0, Standard deviation 5.068823694998207 %): -2.4%

Structure (SMILES): CSCC[C@H](NC(=O)OC(C)(C)C)C(=O)N1CCC[C@H]1C(=O)O (Boc-Met-Pro-OH)
- inhibition (Thailand/16681/1984, Concentration 49.5 uM, Number of replicates 2.0, Standard deviation 1.4939910981363953 %): -1.39%
- inhibition (Thailand/16681/1984, Concentration 99.01 uM, Number of replicates 2.0, Standard deviation 1.5598464340184859 %): -2.18%
- inhibition (Thailand/16681/1984, Concentration 198.0 uM, Number of replicates 2.0, Standard deviation 1.150019372083588 %): -1.35%

Structure (SMILES): COc1cc(COc2cc(C)c(C)nn2)nc(N2CCNCC2)n1
- inhibition (Thailand/16681/1984, Concentration 49.5 uM, Number of replicates 2.0, Standard deviation 0.14766165234531128 %): -2.23%
- inhibition (Thailand/16681/1984, Concentration 99.01 uM, Number of replicates 2.0, Standard deviation 1.3842147000084961 %): -0.476%
- inhibition (Thailand/16681/1984, Concentration 198.0 uM, Number of replicates 2.0, Standard deviation 1.2288529448807899 %): 1.4%

Structure (SMILES): Cc1cc(CO)c2cccc(Cc3ccccc3C(=O)N3C[C@H](O)C[C@H]3C(=O)O)c2n1
- inhibition (Thailand/16681/1984, Concentration 49.95 uM, Number of replicates 2.0, Standard deviation 1.2669833251691414 %): -2.6%
- inhibition (Thailand/16681/1984, Concentration 99.9 uM, Number of replicates 2.0, Standard deviation 2.201230894776843 %): 0.69%

Structure (SMILES): Cc1ccc([C@H](CNC(=O)C2CCN(c3ccc(C=O)cc3)CC2)N(C)C)cc1
- inhibition [1]: 11.2%

Structure (SMILES): O=C(c1ccn([C@H]2CCCNC2)n1)N1CCO[C@@H](c2n[nH]c(CO)n2)C1
- inhibition (Thailand/16681/1984, Concentration 49.5 uM, Number of replicates 2.0, Standard deviation 3.041044909960612 %): -3.65%
- inhibition (Thailand/16681/1984, Concentration 99.01 uM, Number of replicates 2.0, Standard deviation 0.8836043800523453 %): -2.4%
- inhibition (Thailand/16681/1984, Concentration 198.0 uM, Number of replicates 2.0, Standard deviation 3.6375578548923917 %): -0.866%

Structure (SMILES): Cc1cc(CO)c2cccc(NC(=O)c3ccc(-c4ccccn4)s3)c2n1
- inhibition (Thailand/16681/1984, Concentration 49.95 uM, Number of replicates 2.0, Standard deviation 1.2154105868698768 %): 14.9%
- inhibition (Thailand/16681/1984, Concentration 99.9 uM, Number of replicates 2.0, Standard deviation 2.2051689698611554 %): 20.9%

Structure (SMILES): Cc1cc(CO)c2cccc(Cc3cccc(C(=O)N[C@@H](CCN)C(=O)O)c3)c2n1
- inhibition (Thailand/16681/1984, Concentration 49.95 uM, Number of replicates 2.0, Standard deviation 0.6194784255105775 %): -9.07%
- inhibition (Thailand/16681/1984, Concentration 99.9 uM, Number of replicates 2.0, Standard deviation 14.524673907807347 %): 0.432%

Structure (SMILES): O=Cc1ccc(N2CCC(C(=O)Nc3ccc(I)c(F)c3)CC2)cc1
- inhibition [1]: 11.4%

Structure (SMILES): O=Cc1ccc(N2CCC(C(=O)NCc3cccc(-c4ccccc4)c3)CC2)cc1
- inhibition [1]: 20.4%

Structure (SMILES): CCc1nc(CCNC(=O)C2CCN(c3ccc(C=O)cc3)CC2)cs1
- inhibition [1]: 11.2%

Structure (SMILES): Cc1cnccc1NC(=O)c1csc(N2CCCCC2)n1
- inhibition (Thailand/16681/1984, Concentration 49.5 uM, Number of replicates 2.0, Standard deviation 0.691667147244976 %): 0.934%
- inhibition (Thailand/16681/1984, Concentration 99.01 uM, Number of replicates 2.0, Standard deviation 2.1273862022910275 %): 2.54%
- inhibition (Thailand/16681/1984, Concentration 198.0 uM, Number of replicates 2.0, Standard deviation 0.5461016894837782 %): 1.82%

Structure (SMILES): CCn1ccnc(N2CC[C@H](c3ccncc3)C2)c1=O
- inhibition (Thailand/16681/1984, Concentration 50.0 uM, Number of replicates 2.0, Standard deviation 0.2046414941337353 %): 7.35%
- inhibition (Thailand/16681/1984, Concentration 100.0 uM, Number of replicates 2.0, Standard deviation 1.095049302766406 %): 15%
- inhibition (Thailand/16681/1984, Concentration 200.0 uM, Number of replicates 2.0, Standard deviation 0.29770915349112725 %): 27.7%

Structure (SMILES): Cc1cc(N)cc(CNc2cccc3c(CO)cc(C)nc23)c1
- inhibition (Thailand/16681/1984, Concentration 49.95 uM, Number of replicates 2.0, Standard deviation 2.268676515546947 %): 34.9%
- inhibition (Thailand/16681/1984, Concentration 99.9 uM, Number of replicates 2.0, Standard deviation 1.0884002159453274 %): 63.5%

Structure (SMILES): Cc1cc(CO)c2cccc(NC(=O)[C@@H]3CCCC[C@H]3N)c2n1
- inhibition (Thailand/16681/1984, Concentration 49.95 uM, Number of replicates 2.0, Standard deviation 4.042326157041073 %): -9.54%
